Experimental data taken from publication PMC4336329 (PLoS ONE, 2015).
Out of some 310,000 compounds screened, about 14,000 (4.5%) showed an effect of 50% or more. Effects have a minus sign here. The list shows a part of the results.
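Note: peak tail current of the secondary pulse compared with the same well before compound.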

Each molecule was assayed against human ether-à-go-go-related gene (hERG) potassium channel (human, UniProt Q12809) (assay: primary screen, population patch clamp on CHO cells stably expressing hERG).
human ether-à-go-go-related gene (hERG) potassium channel, sequence (Q12809 whole entry, looked up): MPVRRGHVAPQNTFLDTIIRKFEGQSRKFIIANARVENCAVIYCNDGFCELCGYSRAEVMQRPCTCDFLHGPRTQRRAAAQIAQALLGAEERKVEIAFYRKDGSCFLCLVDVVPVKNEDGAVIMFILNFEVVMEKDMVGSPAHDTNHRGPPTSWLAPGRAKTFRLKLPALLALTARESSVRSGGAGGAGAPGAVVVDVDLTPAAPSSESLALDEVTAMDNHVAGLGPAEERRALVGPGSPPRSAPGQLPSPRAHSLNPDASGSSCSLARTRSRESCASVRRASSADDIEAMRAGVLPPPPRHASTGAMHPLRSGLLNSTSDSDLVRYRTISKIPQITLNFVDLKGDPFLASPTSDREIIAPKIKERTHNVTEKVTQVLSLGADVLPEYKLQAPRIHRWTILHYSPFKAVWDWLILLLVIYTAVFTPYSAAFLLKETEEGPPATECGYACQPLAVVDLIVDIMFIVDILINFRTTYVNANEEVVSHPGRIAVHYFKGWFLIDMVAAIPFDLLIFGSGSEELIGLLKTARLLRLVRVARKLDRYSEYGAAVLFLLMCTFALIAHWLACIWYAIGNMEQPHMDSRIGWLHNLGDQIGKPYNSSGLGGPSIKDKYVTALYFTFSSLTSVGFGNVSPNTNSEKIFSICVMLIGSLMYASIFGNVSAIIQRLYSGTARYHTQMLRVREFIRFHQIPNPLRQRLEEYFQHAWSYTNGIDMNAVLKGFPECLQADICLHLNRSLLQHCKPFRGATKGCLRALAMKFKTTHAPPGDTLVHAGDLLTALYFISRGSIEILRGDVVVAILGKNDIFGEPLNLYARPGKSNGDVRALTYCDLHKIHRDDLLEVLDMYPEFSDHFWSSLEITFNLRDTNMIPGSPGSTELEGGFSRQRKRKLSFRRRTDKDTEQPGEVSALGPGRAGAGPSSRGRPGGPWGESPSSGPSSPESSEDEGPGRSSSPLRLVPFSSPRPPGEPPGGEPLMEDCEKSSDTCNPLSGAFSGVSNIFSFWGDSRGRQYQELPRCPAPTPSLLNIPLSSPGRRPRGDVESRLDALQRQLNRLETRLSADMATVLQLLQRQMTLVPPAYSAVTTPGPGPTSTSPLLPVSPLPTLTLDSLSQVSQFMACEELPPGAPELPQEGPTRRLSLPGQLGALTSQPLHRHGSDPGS
In the case of CCOc1ccc(-c2cc(C(=O)N3CCN(c4ccccn4)CC3)c3ccccc3n2)cc1, the “hERG current change (%, negative = inhibition) at 10uM” value is reported as 2.79%. CC1(C)Cc2c(sc(NC(=O)c3ccc(S(=O)(=O)N4CCCCCC4)cc3)c2C#N)C(C)(C)N1 was tested, and the “hERG current change (%, negative = inhibition) at 10uM” value was -65.8%. CN(C)CC(=O)Nc1ccc(S(N)(=O)=O)cc1 was tested, and the “hERG current change (%, negative = inhibition) at 10uM” value was 14%. In the case of CC1CC(OC(=O)C(O)c2ccccc2)CC(C)(C)N1C.Cl (centres unmarked), the “hERG current change (%, negative = inhibition) at 10uM” value is reported as 4.17%. For COc1ccc2c(c1)Cc1sc(NC(=O)c3cccs3)nc1-2, the “hERG current change (%, negative = inhibition) at 10uM” value was -13.8%. For Cc1onc(-c2ccccc2Cl)c1C(=O)N[C@@H](C)c1ccccc1, the “hERG current change (%, negative = inhibition) at 10uM” value was -2.24%. O=c1[nH]c(-c2ccccc2)ncc1Oc1ccccc1 was tested, and the “hERG current change (%, negative = inhibition) at 10uM” value was 9.07%. In the case of CCOC(=O)C(C(=O)OCC)C(C)(C)/C(C)=N\Nc1ccc([N+](=O)[O-])cc1[N+](=O)[O-], the “hERG current change (%, negative = inhibition) at 10uM” value is reported as -40.8%. For CC(=O)N1c2ccc(S(=O)(=O)N(C)CC(=O)Nc3cccc(C)c3)cc2CC1C (centres unmarked), the “hERG current change (%, negative = inhibition) at 10uM” value was 8.43%. With CCN(C(=O)CSc1nc(N)cc(=O)[nH]1)c1c(N)n(Cc2ccccc2)c(=O)[nH]c1=O the “hERG current change (%, negative = inhibition) at 10uM” value was 2.41%. For CCOC(=O)Nc1c(Cl)n(C)c(=O)n(C)c1=O, the “hERG current change (%, negative = inhibition) at 10uM” value was 11.9%. For CCc1cc(C(=O)N(CCCOC)c2c(N)n(Cc3ccccc3)c(=O)[nH]c2=O)sc1C, the “hERG current change (%, negative = inhibition) at 10uM” value was -31.1%. For O=C(O)c1cc(-c2ccc(/C=C3\NC(=O)N(c4ccccc4)C3=O)o2)ccc1Cl, the “hERG current change (%, negative = inhibition) at 10uM” value was 1.61%. C/C(N)=C(/C#N)C(=O)COC(=O)c1cc(-c2ccc(Br)cc2)nc2ccccc12 was tested, and the “hERG current change (%, negative = inhibition) at 10uM” value was 25.4%. For COC(=O)c1sccc1S(=O)(=O)NC(C)c1cnn(-c2ccc(OC)cc2)c1C (centres unmarked), the “hERG current change (%, negative = inhibition) at 10uM” value was 2.98%. In the case of COc1cc(OC)c(OC)cc1CNc1cc(C)ccc1OC, the “hERG current change (%, negative = inhibition) at 10uM” value is reported as -15.4%. CCOC(=O)c1ccc(NC(=O)CCNS(=O)(=O)c2cc(Br)cnc2N)cc1 was tested, and the “hERG current change (%, negative = inhibition) at 10uM” value was 9.89%. Cc1ccc(S(=O)(=O)Oc2ccc(C3C4=C(CCCC4=O)OC4=C3C(=O)CCC4)cc2)cc1 was tested, and the “hERG current change (%, negative = inhibition) at 10uM” value was -3.78%. For CC1CCCN(Cc2ccc(OCc3ccccc3)cc2)C1 (centres unmarked), the “hERG current change (%, negative = inhibition) at 10uM” value was -43.3%. In the case of O=c1o[nH]c(-c2ccccc2)c1N=Nc1c(F)cccc1Cl, the “hERG current change (%, negative = inhibition) at 10uM” value is reported as 14.2%. In the case of Cc1cc(NC(=O)CCCn2cnc([N+](=O)[O-])n2)no1, the “hERG current change (%, negative = inhibition) at 10uM” value is reported as 1.48%. In the case of O=C(NCc1cccnc1)c1ccc(CS(=O)(=O)c2ccc(Cl)cc2)o1, the “hERG current change (%, negative = inhibition) at 10uM” value is reported as -10.3%. With Nc1cc(C(=O)O)ccc1N1CCCCCC1 the “hERG current change (%, negative = inhibition) at 10uM” value was 8.56%.
